Results from PMC4336329 (PLoS ONE, 2015).
Out of some 310,000 compounds screened, about 2,200 (0.71%) showed an effect of 50% or more. Effects have a minus sign here. The list shows a part of the results.

Target: human ether-à-go-go-related gene (hERG) potassium channel (human, UniProt Q12809)
Test: primary screen, population patch clamp on CHO cells stably expressing hERG

Sequence of human ether-à-go-go-related gene (hERG) potassium channel (Q12809 whole entry, looked up): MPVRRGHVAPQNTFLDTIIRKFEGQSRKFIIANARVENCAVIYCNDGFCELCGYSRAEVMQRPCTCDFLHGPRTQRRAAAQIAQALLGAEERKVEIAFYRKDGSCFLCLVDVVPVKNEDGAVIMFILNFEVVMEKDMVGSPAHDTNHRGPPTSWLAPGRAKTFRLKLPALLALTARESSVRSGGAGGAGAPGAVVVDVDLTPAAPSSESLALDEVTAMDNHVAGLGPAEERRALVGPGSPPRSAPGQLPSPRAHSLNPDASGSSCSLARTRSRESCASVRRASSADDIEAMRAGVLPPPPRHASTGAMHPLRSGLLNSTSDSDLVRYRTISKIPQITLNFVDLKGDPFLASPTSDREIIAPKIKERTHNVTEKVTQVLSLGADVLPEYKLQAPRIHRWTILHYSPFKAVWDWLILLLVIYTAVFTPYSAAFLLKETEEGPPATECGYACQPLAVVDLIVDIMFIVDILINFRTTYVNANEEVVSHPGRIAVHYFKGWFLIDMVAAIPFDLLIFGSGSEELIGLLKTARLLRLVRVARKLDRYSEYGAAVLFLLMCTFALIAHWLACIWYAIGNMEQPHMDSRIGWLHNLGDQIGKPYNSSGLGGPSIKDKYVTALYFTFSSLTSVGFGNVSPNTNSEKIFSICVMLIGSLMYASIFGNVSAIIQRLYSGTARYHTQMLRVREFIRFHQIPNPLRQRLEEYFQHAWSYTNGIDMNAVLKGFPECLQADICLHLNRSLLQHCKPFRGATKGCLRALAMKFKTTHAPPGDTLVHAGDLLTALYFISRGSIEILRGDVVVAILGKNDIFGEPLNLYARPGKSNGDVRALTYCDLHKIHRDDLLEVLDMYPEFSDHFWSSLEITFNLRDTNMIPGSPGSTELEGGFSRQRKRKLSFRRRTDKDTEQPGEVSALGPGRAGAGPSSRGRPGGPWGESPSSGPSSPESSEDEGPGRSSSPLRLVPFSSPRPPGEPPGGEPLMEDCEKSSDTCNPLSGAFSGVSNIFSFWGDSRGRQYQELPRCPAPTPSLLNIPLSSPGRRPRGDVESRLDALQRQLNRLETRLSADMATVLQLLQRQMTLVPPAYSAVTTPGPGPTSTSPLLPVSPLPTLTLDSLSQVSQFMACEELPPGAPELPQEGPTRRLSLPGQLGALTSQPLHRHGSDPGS

SMILES	hERG current change (%, negative = inhibition) at 1uM [%]
Clc1ccc(CNc2ccc(N3CCN(Cc4ccccc4)CC3)cc2)cc1	10.2
O=C(COc1ccccc1)N/N=C/c1ccc2c(c1)OCO2	8.59
CCC(=O)O[C@]1(C(=O)SCF)[C@H](C)C[C@H]2[C@@H]3C[C@H](F)C4=CC(=O)C=C[C@]4(C)[C@@]3(F)[C@@H](O)C[C@@]21C	1.93
Cc1n[nH]c(C)c1Sc1ccccc1N=Cc1cc([N+](=O)[O-])ccc1O	-12
CCn1nnnc1SCC(=O)Nc1cccc(C)n1	4.72
O=C(/C=C/c1ccc(Cl)cc1)NCCc1ccccc1	0.359
COc1cc(/C=C/C(=O)c2ccc(C)c([N+](=O)[O-])c2)cc(OC)c1O	6.91
Cn1c(SCC(=O)O)nc2sc3c(c2c1=O)CCC3	20
Cc1cc(C)c(NC(=S)N2CCCC2C(=O)O)c(C)c1 (centres unmarked)	-3.18
COCCn1c(SCC(=O)Nc2ccc(S(=O)(=O)N3CCOCC3)cc2)nc2ccccc21	-4.78
O=C(COC(=O)C1CC(=O)N(Cc2ccccc2)C1)Nc1ccc(Cl)cc1F (centres unmarked)	48.7
Cc1ccc(C2(O)CN(c3ccccc3C)C3=[N+]2CCS3)cc1.[Br-] (centres unmarked)	10.5
CCOP(=O)(c1ccc(N(C)C)cc1)C(O)c1ccccc1F (centres unmarked)	12.3
Cc1ccc(C)c(NC(=O)C(C)N2C(=O)c3ccccc3C2=O)c1 (centres unmarked)	10.8
Cc1ccc(-c2nn(CCC(=O)NC(C)C)c(=O)c3ccccc23)cc1	20.7
O=C(NCc1cccc(OC(F)(F)F)c1)C1CCC(=O)N(Cc2cccc(F)c2)C1 (centres unmarked)	-17
CNc1ccc2nc3ccccc3[n+](C)c2c1.[O-][Cl+3]([O-])([O-])[O-]	11.6
CO/N=C(/C)CCS(=O)(=O)c1ccccc1	12.4
O=C(NNS(=O)(=O)c1ccccc1)c1csc(-c2cccnc2)n1	9.51
COc1ccc(C(C)NC(=O)c2ccccc2Cl)cc1OC (centres unmarked)	4.44
COc1cc(C(=S)N2CCOCC2)cc(OC)c1OC(=O)c1ccccc1[N+](=O)[O-]	14.5
CC(C)C[C@H](NC(=O)c1nc[nH]c1C(=O)N1CCN(c2ccccc2)CC1)C(=O)OCc1ccccc1	9.97

SMILES	hERG current change (%, negative = inhibition) at 1uM [%]
Cc1cc(O)c(C(C)C)cc1NC(=O)Cn1nc(C)c2ccccc2c1=O	-6.85
CCOc1cc(/C=C2\NC(=S)N(C)C2=O)ccc1OCc1ccc(C(=O)O)cc1	6.12
O=C(c1ccco1)N1N=C(C2CCCCC2)CC1(O)C(F)(F)F (centres unmarked)	0.504
O=C(Nc1ccc2c(c1)OCCO2)C1CCN(S(=O)(=O)c2ccccc2)CC1	13.1
CCCc1cc(=O)oc2c(C)c(OCC(=O)Nc3ccc(CN4CCOCC4)cc3)ccc12	9.68
O=C(NC1CCCCC1)c1ccc(CNc2c(N3CCOCC3)c(=O)c2=O)cc1	9.75
Cc1cc(C)n(CCCN2C(=O)c3cccc4cccc(c34)C2=O)n1	7.6
O=C1C2C(C(=O)N1/N=C/c1cccc([N+](=O)[O-])c1)C1C=CC2C12CC2 (centres unmarked)	6.68
Cc1onc(-c2ccccc2)c1C(=O)NC(C)C1CCCO1 (centres unmarked)	4.69
Fc1cccc(C[n+]2csc3ccccc32)c1.[Br-]	6.39
COCCNC(=S)Nc1ccc2nc(N3CCCC3)cc(C)c2c1	-50.5
CCCC[C@@H](CNC)NC[C@H](NCCCCC1CCCCC1)C(C)C	11.2
COc1cccc(CNC(=O)c2cc3c(cc2Cl)N2CCCCCC2=NS3(=O)=O)c1	2.12
N#Cc1c(-c2ccc(Br)cc2)cc(-c2cccnc2)nc1N	5.3
CCc1nnc(NC(=O)CCN2C(=O)/C(=C/c3cc(OC)c(OC)c(OC)c3)SC2=S)s1	11.6
O=C(CN1C(=O)NC2(CCCC2)C1=O)Nc1cccc(Cl)c1	9.16
COc1ccc(Cc2c(O)nc(SCC(=O)N3CCCCCC3)[nH]c2=O)cc1	9.8
O=C(COc1ccc(Cl)cc1)NCc1ccccc1	-3.37
CC1(OC(=O)c2cccs2)C(=O)C=C2C=C(C3CC3)OC=C2C1=O (centres unmarked)	13.7
C=CCNC(=S)Nc1sc2c(c1C#N)CCCC2	10.6
O=C(CSc1ccc(-c2cccnc2)nn1)Nc1ccc(F)c(F)c1	-0.104
O=C(Nc1ccc([N+](=O)[O-])cc1)C1COc2ccccc2O1 (centres unmarked)	7.07
